These are yes or no findings as the source states them, for the method shown. In cells and extracts the contact can be indirect. Some results given as binding are weak or reduced against the parent protein; the word gives no strength.
Experiments:
Experiment in all cases: co-IP
[1] = target: HA-tagged Nipah virus C protein (NiV-C-HA) (Nipah virus) (UniProt Q997F1)
[2] = target: HA-EGFP-C-CTD (fusion of EGFP and NiV-C-CTD) (Nipah virus) (UniProt Q997F1)
[3] = target: NiV-C 159tr with C-terminal HA tag (Nipah virus) (UniProt Q997F1)

| Substance | binding [1] | binding [2] | binding [3] |
| --- | --- | --- | --- |
| FLAG-EGFP-Tsg101-CTD (from UniProt Q99816 303-390) (domain or fragment) | binds | – | – |
| FLAG-Tsg101 (from UniProt Q99816 1-390) | binds | – | – |
| endogenous Tsg101 (from UniProt Q99816 1-390) | binds | binds | no binding |

From article PMC4874542
